Source: the supplement of paper PMC3334620
The full ranking holds about 33,000 sequences; the median of “E-score (-0.5 to 0.5)” is about -0.016, and the highest 2% start at about 0.32. The list shows a part of the results.

molecular target: T1, Stp1 (UniProt B3LFK1); test: PBM E-score (8-mer binding enrichment) (E-score (-0.5 to 0.5)); higher = stronger / more preferred TF binding; most listed sequences are background and not binding sites; settings: protein concentration: 200 nM; construct: GST-full length
T1 sequence: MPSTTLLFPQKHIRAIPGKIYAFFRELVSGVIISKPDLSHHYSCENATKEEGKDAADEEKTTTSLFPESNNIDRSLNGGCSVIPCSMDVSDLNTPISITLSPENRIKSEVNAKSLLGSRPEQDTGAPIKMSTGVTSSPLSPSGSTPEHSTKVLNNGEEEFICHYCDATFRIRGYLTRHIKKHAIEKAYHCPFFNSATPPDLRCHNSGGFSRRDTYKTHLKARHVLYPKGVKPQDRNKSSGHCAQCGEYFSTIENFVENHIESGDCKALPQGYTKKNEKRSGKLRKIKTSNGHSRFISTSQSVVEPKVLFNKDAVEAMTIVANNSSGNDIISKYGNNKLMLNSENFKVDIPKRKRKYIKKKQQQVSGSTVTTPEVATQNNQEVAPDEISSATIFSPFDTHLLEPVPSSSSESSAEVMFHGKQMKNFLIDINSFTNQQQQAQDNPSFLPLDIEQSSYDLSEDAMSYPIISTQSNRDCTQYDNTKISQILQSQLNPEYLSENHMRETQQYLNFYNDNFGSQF
Outline: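 Bound GST-tagged yeast transcription factors, applied at about 100-200 nM to double-stranded universal all-10-mer Agilent arrays, were detected with fluorescent anti-GST. Scans were normalised with masliner. A modified Wilcoxon-Mann-Whitney statistic, the E-score, was assigned to each ungapped eight-base word pooled with its reverse complement by the Universal PBM Analysis Suite.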

Sequence	PBM E-score
CTGATTAC	0.0824
GGATAGTA	0.0402
GTCACCGA	0.0238
CCGTAGGC	0.144
GACAGCCC	-0.143
ACATGCAC	0.0354
CCATCTGC	-0.055
AACCAGAC	-0.174
GTGGTGCA	-0.157
GCCGATCC	0.0492
GCCAAATA	0.109
GAGATGAC	-0.282
GGTCGATA	-0.144
CGACTCCA	-0.331
CGGACATA	0.131
ATACGGCC	0.406
CCCCATCG	-0.0472
CGCAATAC	0.158
GAGCATCC	-0.254
AAACGCAA	0.152
GTGCTCGA	-0.0498
GTGTGGTA	-0.0047
AGTGCAAC	-0.0282
AGTCTTAT	-0.0786
AGTTTACG	-0.0251

Sequence	PBM E-score
GTTGGTTA	0.0838
CCTAGCAG	-0.16
CTACGCAA	-0.0558
AGGATAAC	-0.132
ATCGATAC	0.208
AGGCCATA	-0.042
ACTTAGTG	-0.00783
AACTATGA	0.0832
GAACGTCC	-0.0916
TAGAAAAA	0.0466
ATGGTAAC	0.166
CCATCGAC	-0.175
AGCCACGA	-0.106
AGTGATGG	-0.223
CACCTGGG	-0.179
GATCGCAA	0.0331
CAACGGCA	0.402
GGCAGTTA	0.0772
GGGAAATA	0.0153
CTATCTGC	-0.265
CCCGCAGC	-0.123
GCCACGTA	0.156
CAGCTACG	-0.14
GACAGATA	0.0745
GTCATTAA	0.0542

Sequence	PBM E-score
AAATGAAC	0.00278
CATGCTTC	-0.0116
CGCGGTCC	0.0444
CCGAGATA	0.0387
CGAGCAAA	0.0686
AAACCGCG	0.256
CGCTTCGA	0.00998
CAGACGAA	0.269
GGCCAGAA	0.00154
ACAACAAA	0.215
CCTCGGCA	0.282
CTCTGGAA	-0.066
TCCCGGGA	-0.0864
ACTACTTA	-0.0788
AGTTCATA	0.0982
CTTGCTTC	-0.0155
CGACGGAA	-0.0215
GCGAGGAC	-0.153
GTCACAAC	0.0595
ATAGGGAT	0.0389
CACTGGAC	-0.105
GCGCCTGA	0.16
AAGCACCG	-0.105
GACGGTCA	-0.266
GGTCTCGA	-0.0339

Sequence	PBM E-score
ACCGAGGC	-0.121
GGCAGCGA	0.118
GGGATACA	-0.316
ATGGAAAT	0.0295
AACGCGCG	0.232
CTCCGGAC	-0.0608
CCACACAC	0.135
CCCCTAGA	-0.293
AGAAATCA	0.207
CGATGCAA	-0.034
CCGACCGG	-0.261
ATGACATA	-0.00518
CATAGGTA	-0.0698
ACAGCCCA	-0.0809
ATTTGAGC	0.0657
ATCGCTCA	-0.154
ATTCGATG	-0.0786
GTAGCGTA	-0.163
ACGTTGAT	0.12
CTGGCGGC	0.0639
CAAGACGA	-0.0928
AGTGTGCA	0.0562
AAAAACAC	0.128
ACCTGACC	-0.197
GACCCCAC	-0.0294

Sequence	PBM E-score
CAGTGCAC	-0.134
CTCTTATA	0.175
AATTATCT	0.0629
AGATGCAG	-0.0728
GAGAACCC	-0.358
ATACTTTG	0.0376
GGTCGTGA	-0.188
TCAATGGA	-0.0121
AGCACAAC	-0.0252
CTGGTTTC	0.0592
ACCGAACT	-0.0382
AAGAACAC	0.0921
AAGGCTGA	-0.0513
AAATTGTG	-0.163
AAGACTCG	-0.0483
CAAGACCC	-0.272
CAGCGCAG	-0.0181
CACGCTGA	-0.0008
GAAGGTAC	-0.11
AGGTCGTG	-0.143
ACTTCATC	-0.0261
TCCCCAAA	-0.0405
CTGATCGA	-0.228
AATACAGC	0.0392
CGATTGTC	-0.00563

Sequence	PBM E-score
CAAAAGCC	0.121
CCAGTGAA	-0.0703
GACGCCTA	0.0445
CCGCGGCG	0.435
ATCCCTCG	-0.184
GTGGCCCA	-0.123
AGGTAATA	0.176
AGGCCACA	-0.0702
CAATGATA	0.144
AAAGCCTT	0.0465
CTGCATAA	-0.0376
ATTCTTCG	0.00242
GTTTGGTA	0.189
CCTCACAG	-0.0104
GAGGCCAC	-0.0944
CGTGATAA	0.186
AGTTCACC	0.108
ATTATGAA	0.232
AGTCGCAT	-0.183
GCTCAAAC	0.165
GCGAGCAC	-0.208
ACTTCTTG	-0.0889
AATCTCAG	-0.205
GCTTCACA	-0.0515
CGCTAGTA	0.0319

Sequence	PBM E-score
CTGGTGGC	-0.14
GATTGGGA	-0.222
CTCATACC	0.103
GATGTCGC	-0.0594
ATAAAATA	0.168
CCGCCCCG	0.273
AAACGTCC	-0.0965
GTGTTCGA	0.0404
CGTTTTCA	0.241
CGTCTACC	-0.0252
GCGGCTAC	0.305
AACGTACG	0.0691
ACGTGAAT	0.0158
ACTGCCTG	0.0249
CGCTCACG	0.0682
ACGATGCG	-0.0608
AAGTAGAT	0.0197
GGTCCAGA	-0.0942
CGTGAATC	0.0226
CCAGTACA	-0.202
AATTGGCA	0.0379
AGGGGTTC	-0.33
ATCTTGAC	0.0119
GAACGGTA	0.0439
GTTCCGCA	0.148

Sequence	PBM E-score
AGGTGGAC	-0.203
AAAAGCCG	0.326
AAATTAGT	0.208
ACGCAGCC	0.0204
ACGTAGTC	-0.204
CCCGCCGG	-0.213
CAATTAAC	0.147
GAGGCAGA	-0.118
AATCAAAA	0.151
CCGCGCAC	0.299
GACCGGCC	-0.184
AGCCGTAT	0.435
ATTTTGCA	0.109
CCAGTGCC	0.179
GCCGGCGA	-0.00476
CGGGAAAA	-0.0802
CCTATAAA	-0.0378
CTGTTGTA	0.0828
AAAGAACA	-0.0165
TAACTTCA	0.0367
CAGATTAG	-0.192
AGCCATGA	-0.107
AACATTTA	-0.0282
GGGAGCCC	-0.335
GAGTGCAC	-0.0043

Sequence	PBM E-score
AATTTTCC	0.0625
AGTGAAGA	-0.041
AGAGATAT	-0.0244
AGCGGAAG	-0.102
GACAACAA	0.0779
ACTTATCA	-0.0319
ATAAGGGG	-0.181
TCTATCCA	-0.0202
TAGACACA	-0.101
AGTTGTCA	0.138
ACTTCCTG	-0.0515
CGATGCAG	-0.151
GAATCAAA	-0.00295
ATACTTAC	0.0388
GCCTCAAC	-0.111
TAATGCCA	0.267
CAGAGGGA	-0.168
AGTCGTTG	-0.261
ATACGCGC	0.151
CGGAACAC	0.155
ATGTCGCA	0.0188
GCGATATA	0.0834
AAGAAGAA	-0.0157
AGCTATTG	-0.0886
CAGGGGGG	-0.469

Sequence	PBM E-score
AGGTGTTC	-0.198
CCTACCGC	-0.0804
GCGGCGGA	0.358
CCGTCCCG	0.11
ATGACTGG	-0.308
GAGCTATC	-0.125
CCTTATGC	0.243
CTAGGAAA	-0.15
TCTTACCA	0.00503
TGCATTAA	0.199
AGGGACGA	-0.0417
CAAGTAGA	-0.0593
CCGGCAAC	0.0817
AAAATGGC	0.223
GTCCCTGA	-0.224
AGGTGGGG	-0.119
CGTCACCC	-0.12
CATAGCGA	0.0324
CACTTTCG	-0.0438
CACAGTTC	-0.033
GTCCAGAA	-0.0459
GAGATGGC	0.173
GTAGACTA	-0.141
ATATAGAA	0.0896
CTCAACTA	0.01

Sequence	PBM E-score
AGACAGAC	0.234
AGGGTCAG	-0.283
AGCCTGGA	-0.227
AGGGCTAG	-0.207
ACTATCCT	-0.194
AATCCCTA	0.0208
AAAGTCCA	-0.153
GAACGAAC	0.125
CGGGCTAA	-0.0457
ACCCCGAC	-0.295
TAATAGAA	0.137
AGTCGAGG	-0.242
CCTTGGGA	-0.0477
ACTTACCA	0.0513
TATCGCGA	0.0696
ACCAACTG	-0.247
AGATCGTC	-0.3
AGCCGTGG	0.334
CTCTGGTA	-0.177
ACAAGGTG	0.123
GACGAGGA	-0.0599
AGAAGCAG	-0.159
CATAGTGG	-0.0706
GGCGATAA	0.257
CACATCCC	-0.158

Sequence	PBM E-score
ATGATGAA	0.157
GACATTAC	0.0386
AGGCCGAA	-0.287
ACTGAGGA	-0.0836
AAGGGATT	-0.127
ACCCAGCG	-0.148
ACCACTAT	-0.127
AAAGAGGT	-0.0198
CCATTTAC	0.0994
ATTTAGCC	0.188
CACCGTCG	-0.114
TGCATGAA	0.0576
CCACTAAC	-0.0809
ATTTACGG	0.277
GATACAAC	0.0945
CTTGCATA	-0.0277
AGCAGATA	-0.0603
ATTTTGAA	0.277
GACTCAAC	0.15
CGTGGGAA	0.0706
GTATTAAC	0.0684
ACTTTACG	0.0861
AAAGTTCA	0.0106
TGCCAAAA	0.0739
GATAGAGC	0.161

Sequence	PBM E-score
AAAGTCCC	-0.212
CAAAGCAC	-0.0968
CTGTCTTC	-0.0807
ACTTCGGG	-0.114
GGGGATCA	-0.201
CGGCACGC	0.437
ATATGGAT	0.0941
ACCTTGCT	-0.158
ATCCACTG	-0.203
ACAGCTAG	-0.0366
TAGCGGAA	-0.0289
GCCGAACA	0.114
CCAACTAG	-0.0642
TTCAACAA	0.167
TGCTGTAA	-0.00878
AACCTGAA	-0.217
CATGGCAA	0.146
ACACAGGG	0.0528
CCAATTGC	0.014
GGGCTTGA	-0.172
AAGTAGAC	-0.0374
CCCGAATA	0.0793
AAATTATT	0.156
AATATGAG	0.0299
ATCTTCAA	0.114

Sequence	PBM E-score
AAGGAATG	0.0751
CGTACAGA	0.132
GACGAATA	0.0941
GGGCCTGA	-0.296
CACTCGCC	0.203
AGCCTACA	-0.0558
ACCGTGAA	-0.0275
AGGGCATG	0.0868
ACCTCAGC	-0.101
ATTAGCTC	-0.13
CCGCACCG	0.288
ATAACCTA	-0.0129
CTTGCCGA	-0.128
GGGGCGCA	0.126
ACACGCTC	0.0368
CAGACTCG	-0.185
ATCTAGCC	0.126
ACATTGAA	0.141
ATGTCATC	-0.214
